The record followed here is the BET-seq Pho4 binding data (Le et al. 2018).

Some of the results follow. These are noisy estimates, calculated here from bound and input reads.

In the assay the target is T1, Pho4 (S. cerevisiae) (UniProt P07270).
T1 sequence: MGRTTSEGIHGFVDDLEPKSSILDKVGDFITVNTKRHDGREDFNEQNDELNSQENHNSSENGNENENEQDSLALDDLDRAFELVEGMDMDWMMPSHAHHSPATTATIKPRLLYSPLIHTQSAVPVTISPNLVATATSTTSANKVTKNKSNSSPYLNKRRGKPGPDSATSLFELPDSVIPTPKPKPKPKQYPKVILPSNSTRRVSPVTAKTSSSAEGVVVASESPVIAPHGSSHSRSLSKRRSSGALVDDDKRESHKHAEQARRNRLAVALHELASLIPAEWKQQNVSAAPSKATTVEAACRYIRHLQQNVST
The assay can be described thus: relative binding free energy (BET-seq); higher = weaker binding. Particulars: reference: library average.
On to GTTCTCACGTGGGCGG, for which the “relative binding free energy” value came to 0.15 kcal/mol. In the case of TAGTTCACGTGGGCCG, the “relative binding free energy” value came to 0.19 kcal/mol. For the sequence ATAGTCACGTGGGCGA, the “relative binding free energy” value was -0.09 kcal/mol.

As for GGAATCACGTGACGTG, the “relative binding free energy” value came out at 0.32 kcal/mol. For CAGGCCACGTGTGGTG, the “relative binding free energy” value is -0.1 kcal/mol. Turning to GTGGTCACGTGCGTCG, the “relative binding free energy” value stood at 0.02 kcal/mol. Next, GGAGTCACGTGATTGG: 0.39 kcal/mol.

ATTCACACGTGGTTTT: the “relative binding free energy” value was -0.03 kcal/mol.

On to TATCACACGTGGGGTA, for which the “relative binding free energy” value is -0.1 kcal/mol. In the case of GCGTGCACGTGTATTA, the “relative binding free energy” value stood at 0.06 kcal/mol.

Take GGTCGCACGTGAGCGG: the “relative binding free energy” value turned out to be 0.11 kcal/mol.

For the sequence TTCGTCACGTGTGTTT, the “relative binding free energy” value came out at 0.18 kcal/mol. For the sequence AGTGTCACGTGGTGGC, the “relative binding free energy” value was -0.05 kcal/mol.

Take TTTTGCACGTGTATCA: the “relative binding free energy” value came out at 0.08 kcal/mol. For TGCTACACGTGGTGTA, the “relative binding free energy” value was -0.01 kcal/mol. For the sequence TGGGGCACGTGATCTT, the “relative binding free energy” value is -0.03 kcal/mol. Next, CTATGCACGTGGGTCG: -0.13 kcal/mol; GTTTACACGTGATGAT: 0.26 kcal/mol. As to AGGTGCACGTGTAGGC, the “relative binding free energy” value is -0.01 kcal/mol.

Consider TATGGCACGTGGGCAT, for which the “relative binding free energy” value was -0.17 kcal/mol. Turning to GATTGCACGTGGTCAG, the “relative binding free energy” value was -0.13 kcal/mol. As to ATGTACACGTGAATTG, the “relative binding free energy” value was found to be 0.19 kcal/mol.

For the sequence TAGGCCACGTGTTAGT, the “relative binding free energy” value was -0.08 kcal/mol. As to TGCTTCACGTGATAGT, the “relative binding free energy” value worked out at 0.23 kcal/mol. Take CTTGGCACGTGGTTTA: the “relative binding free energy” value is -0.08 kcal/mol. With ACGGACACGTGTGGTG, the “relative binding free energy” value was -0.1 kcal/mol. In the case of TTAGGCACGTGAATGT, the “relative binding free energy” value amounted to 0.07 kcal/mol. Take TAAGTCACGTGTACTG: the “relative binding free energy” value amounted to 0.26 kcal/mol. For AGTGGCACGTGGTAAG, the “relative binding free energy” value was -0.15 kcal/mol. Regarding TGTCACACGTGGTCGT, the “relative binding free energy” value is 0.06 kcal/mol. For the sequence CCTCGCACGTGGGGGT, the “relative binding free energy” value is -0.21 kcal/mol.

As for TGAATCACGTGGATTG, the “relative binding free energy” value amounted to 0.04 kcal/mol. For the sequence AGTTGCACGTGATGTA, the “relative binding free energy” value came to 0.06 kcal/mol.

In the case of ACGGTCACGTGTGAGT, the “relative binding free energy” value worked out at 0.12 kcal/mol. GTGTCCACGTGTGAGG: the “relative binding free energy” value stood at 0.16 kcal/mol. Consider TTGTACACGTGGTGTC, for which the “relative binding free energy” value is -0.07 kcal/mol. Next, AGGATCACGTGGGTTT: 0.08 kcal/mol; TGTCTCACGTGAGGTT: 0.42 kcal/mol; GGGCGCACGTGCGAGG: -0.13 kcal/mol. As for GCTTGCACGTGGTCGG, the “relative binding free energy” value was -0.07 kcal/mol. AGAAGCACGTGAAGTT: the “relative binding free energy” value was 0.28 kcal/mol. For TCATGCACGTGGCGGT, the “relative binding free energy” value is -0.09 kcal/mol. TGTCACACGTGGGGTG: the “relative binding free energy” value was -0.1 kcal/mol. Take TCTATCACGTGTGGTA: the “relative binding free energy” value was -0.03 kcal/mol. Consider CAAGTCACGTGGATGG, for which the “relative binding free energy” value was 0.1 kcal/mol.

On to ACTGGCACGTGTAATG, for which the “relative binding free energy” value is 0.08 kcal/mol. As to GATGACACGTGGGGCT, the “relative binding free energy” value is 0.02 kcal/mol. For the sequence TACTTCACGTGGGCTG, the “relative binding free energy” value stood at 0.27 kcal/mol. As to AGGGGCACGTGTATCT, the “relative binding free energy” value worked out at 0.02 kcal/mol.

Take AATTGCACGTGTCGTT: the “relative binding free energy” value is 0.05 kcal/mol. Consider GGTGTCACGTGTTTAT, for which the “relative binding free energy” value came to 0.19 kcal/mol.

As to AAGGACACGTGGGGCG, the “relative binding free energy” value was -0.12 kcal/mol.

Turning to TGGCACACGTGCGGGG, the “relative binding free energy” value is -0.13 kcal/mol. As for ATTTTCACGTGTGAGA, the “relative binding free energy” value was determined as 0.31 kcal/mol. For the sequence TTGGCCACGTGATGTA, the “relative binding free energy” value was -0.03 kcal/mol. AGTCGCACGTGATTGA: the “relative binding free energy” value amounted to 0.16 kcal/mol. Next, TAGGACACGTGGGGCG: -0.12 kcal/mol; CGTTACACGTGATTAG: 0.29 kcal/mol.

For the sequence GTGATCACGTGGGCAG, the “relative binding free energy” value was -0.12 kcal/mol. Regarding GGTACCACGTGCGGGG, the “relative binding free energy” value was -0.1 kcal/mol.

As to TGTCTCACGTGATGGG, the “relative binding free energy” value is 0.28 kcal/mol. Turning to CGTGTCACGTGGGTCG, the “relative binding free energy” value is -0.03 kcal/mol. Regarding GGTTGCACGTGATTGT, the “relative binding free energy” value amounted to 0.24 kcal/mol. On to TCTCGCACGTGTTTGG, for which the “relative binding free energy” value turned out to be 0.04 kcal/mol.

Consider TATAACACGTGAGTAT, for which the “relative binding free energy” value is 0.17 kcal/mol. For the sequence GTTAACACGTGAGGCT, the “relative binding free energy” value was 0.31 kcal/mol. Take TTACTCACGTGGTGGG: the “relative binding free energy” value is 0.18 kcal/mol. On to AGCCGCACGTGGGTGT, for which the “relative binding free energy” value was -0.19 kcal/mol.

With TATGTCACGTGGCTGT, the “relative binding free energy” value turned out to be 0.12 kcal/mol. As for CGGTGCACGTGGGTAG, the “relative binding free energy” value is -0.12 kcal/mol. For TAAAGCACGTGTTGGC, the “relative binding free energy” value is -0.11 kcal/mol. With AAAGTCACGTGCGGGT, the “relative binding free energy” value came to 0.09 kcal/mol. The figure for GTAAACACGTGGGAAA is 0.08 kcal/mol. Take ATGGCCACGTGGGTGC: the “relative binding free energy” value is -0.31 kcal/mol. The figure for CAGGTCACGTGGAAGT is 0.23 kcal/mol; for GTATACACGTGGTATG it is -0.14 kcal/mol; for GAGAACACGTGGGGTT it is -0.1 kcal/mol.

As to TTTTGCACGTGTGCTC, the “relative binding free energy” value is -0.05 kcal/mol.

AATGTCACGTGTTCAT: the “relative binding free energy” value is 0.09 kcal/mol. With TTTAACACGTGCGTGA, the “relative binding free energy” value was -0.09 kcal/mol. Next, ATGATCACGTGTGAAG: 0.08 kcal/mol; TAGAGCACGTGTCGGT: 0 kcal/mol; GGGCTCACGTGGGAGC: 0.21 kcal/mol. The figure for GCGTTCACGTGTCGGT is 0.43 kcal/mol; for TTTAACACGTGACGGT it is 0.1 kcal/mol; for GGGTACACGTGGTACT it is 0.09 kcal/mol. As to TAAAGCACGTGGTTTC, the “relative binding free energy” value is -0.06 kcal/mol.

TGCATCACGTGGTTGA: the “relative binding free energy” value was -0.06 kcal/mol. Consider ATAGTCACGTGTTAGG, for which the “relative binding free energy” value was determined as 0.14 kcal/mol. On to CGACTCACGTGGGGTG, for which the “relative binding free energy” value was found to be 0.02 kcal/mol. For TACAGCACGTGGTTTT, the “relative binding free energy” value is -0.11 kcal/mol. Turning to ATCGGCACGTGGGGTA, the “relative binding free energy” value was -0.23 kcal/mol. Take TTGGACACGTGCGGGT: the “relative binding free energy” value was determined as 0.01 kcal/mol. Next, AATGGCACGTGTTGTG: -0.12 kcal/mol; ATGAGCACGTGTCTTT: -0.03 kcal/mol; ATATACACGTGGAAGT: 0.07 kcal/mol.

As for GTTGACACGTGTGTTA, the “relative binding free energy” value was 0.11 kcal/mol. As for TCTGACACGTGGAGGA, the “relative binding free energy” value was determined as 0.13 kcal/mol. Next, TTGGACACGTGGAGCG: 0.09 kcal/mol; GCTAGCACGTGAGTTT: 0.23 kcal/mol; CAGTTCACGTGCGGGG: 0.2 kcal/mol.

Consider AAATTCACGTGGTTGG, for which the “relative binding free energy” value stood at 0.17 kcal/mol. The figure for TTAATCACGTGGCGAT is 0.1 kcal/mol; for GCGTTCACGTGGATTT it is 0.48 kcal/mol. For the sequence GGGGGCACGTGGTTCT, the “relative binding free energy” value was -0.17 kcal/mol. The figure for TTATTCACGTGGCTTG is 0.23 kcal/mol; for GTATACACGTGTGGCT it is 0.11 kcal/mol.

As to CATGGCACGTGTGAGT, the “relative binding free energy” value was found to be 0.05 kcal/mol.

Take ATTTTCACGTGCTGTG: the “relative binding free energy” value worked out at 0.26 kcal/mol. Take CGGAGCACGTGATGGT: the “relative binding free energy” value is 0.12 kcal/mol.

As to AGATACACGTGGTAGG, the “relative binding free energy” value is -0.04 kcal/mol. ATAGGCACGTGTGAAT: the “relative binding free energy” value was -0.21 kcal/mol. Next, AATGGCACGTGTATCG: -0.13 kcal/mol.

With GGCGTCACGTGTGTGC, the “relative binding free energy” value was 0.13 kcal/mol. As for GTTGACACGTGGTTGC, the “relative binding free energy” value came to 0.01 kcal/mol.
